The term IC50 denotes the midpoint of a concentration-inhibition curve. Read a low IC50 as higher potency.

A short description of data set [1]: Payload liberation in human liver lysosomes. In kind it is in vitro ADME. The note with it: human liver lysosomes, pH 5.0. The protocol:
pH was adjusted either to pH 5.0 or pH 4.0 using assay buffer. […] Preparation of MeOH+PIC (1:200): 10 μL PIC III+1990 μL MeOH. The reactions were started upon transferring the Eppendorf tubes to a Thermomix that was preheated to 37° C. Subsequently, 10 μL aliquots were drawn after 0, 1, 2, 4, 24 and 48 hours and mixed with 40 μL PIC III (1:200).

The test system of another data set is SK-CO-1. Put plainly: Viability assay (Cell Titer-Glo). In kind it is cell-based, human. The note with it: Table 2; at the highest tested compound concentration. (In general: In ATP-based viability assays light output follows the ATP content of the culture.)
Another data set deals with MDA-MB-468. Put plainly: Viability assay (Cell Titer-Glo). In kind it is cell-based, human. The note with it: Table 2.
For the next data set, the system named is SNU-16. The experiment in a line: Viability assay (Cell Titer-Glo). In kind it is cell-based, human. The note with it: Table 2; at the highest tested compound concentration.
A further data set deals with LS174T. Put plainly: Viability assay (Cell Titer-Glo). In kind it is cell-based, human. The note with it: Table 2; at the highest tested compound concentration.
The next data set can be described thus: ADC stability in serum. It is filed as in vitro ADME. The note with it: up to 96 h. The procedure: 2 M HEPES solution: 52.1 g HEPES were dissolved in 75 mL MiliQ-water and 15 mL HCl 25%, adjusted to pH 7.55 and added up to 100 mL. This solution was mixed as 15% v/v with serum to obtain a stabilized serum with pH 7.3-7.4. Human serum from Biowest (Lot. no. S15594S4200) was thawed. 100 mL serum were mixed with 15 mL 2 M HEPES buffer. Mouse serum from Biowest (Lot. no. S18169S2160) was thawed. 100 mL serum were mixed with 15 mL 2 M HEPES buffer. Cynomolgus serum was thawed and 8.5 mL serum were mixed with 1.5 mL 2 M HEPES buffer. The pH was measured (7.37) and serum was sterile filtered. 2 mL aliquots were frozen at −20° C.
The prepared serum was thawed at RT. The desired ADC protein concentration was prepared as triplicated with 180 μg/mL for subsequent free payload analytics via LC-MS. After adding the ADCs to the serum, the individual batches were mixed and separated into 20 μL aliquots.
Additionally, one 96 h sample with 20 μL for each ADC was pipetted and was used to for total work up analyses to measure recovery. 0 h samples were directly frozen at −80° C., remaining samples were incubated at 37° C. and 5% CO2 and reactions were stopped at 2/4/6/24/48/72, 96 hours incubation via storage at −80° C.

The next data set has as its system MKN-45. Put plainly: Viability assay (Cell Titer-Glo). In kind it is cell-based, human. The note with it: Table 2; at the highest tested compound concentration.
The test system of a further data set is MDA-MB-231. The experiment in a line: Viability assay (Cell Titer-Glo). It is filed as cell-based, human. The note with it: Table 2.
Data set [2] concerns CEACAM5-negative MDA-MB-231 cells in co-culture with CEACAM5-positive SK-CO-1 cells. The experiment in a line: Bystander assay. In kind it is cell-based, human. The procedure: Cytotoxicity effects of ADCs on antigen-negative cancer cell lines in co-culture with antigen-positive cancer cell lines were measured by bystander assays. One thousand CEACAM5-negative MDA-MB-231 cells were seeded in co-culture experiments with 750 or 3000 CEACAM5-positive SK-CO-1 cells per well. As a control, 1000 MDA-MB-231 cells only were seeded in parallel. Cells were seeded in a total volume of 90 μL in 96-well plates the day before treatment. Test compounds were formulated at 10-fold the final concentration of 1E-9 M in cell culture medium and 10 μL was added to the cells in duplicates. Plates were cultured at 37° C. in a CO2 incubator for six days.
Prior to immunofluorescence staining, medium was removed and cells were treated with 100% methanol (−20° C.) for 30 minutes. After methanol removal and one PBS wash step, cells were treated with 2.5% paraformaldehyde (PFA) with 0.2% Triton X-100 in PBS for 15 minutes at room temperature. After solution removal and one PBS wash step, cells were treated with 1% BSA/0.1% Tween/0.1% sodium azide in PBS for at least one hour at room temperature. Antigen-positive and antigen-negative cells were discriminated by immunofluorescence staining with 10 μg/mL human anti-CEACAM5 (mAb1) primary antibody and 1:2000 dilution of donkey anti-human IgG fluorescently (phycoerythrin) labeled secondary antibody (Jackson ImmunoResearch #709-116-149). Cells were identified by nuclei staining using 1 μg/mL Hoechst 33342 (Life technologies, cat #H3570) dye. Staining was carried out in 1% BSA/0.1% sodium azide PBS solutions for 30 minutes at room temperature. Secondary antibody staining was combined with Hoechst dye staining. Between and after staining steps, cells were washed thrice with PBS.
Plates were imaged with the confocal quantitative image cytometer CQ1 (Yokogawa® Electric Corporation, Tokyo, Japan). Analysis was adapted from the CQ1 software (Yokogawa) template “Nucleus and pseudo-Cell body” and FCS export files were analyzed using FlowJo (BD). Based on staining or absence of staining with fluorescently labeled antibody around the nucleus, antigen-positive and antigen-negative cells were distinguished and quantified. Bar graphs show the number of identified antigen-positive and antigen-negative cells per treatment condition.

Data set [3] has as its system human patient-derived CRC xenograft model COPF217. The experiment in a line: CRC PDX mouse model COPF217. The note with it: single i.v. treatment, 10 mg/kg. It is filed as in vivo. The protocol:
Anti-tumor efficacy in vivo has been evaluated in the human patient-derived CRC xenograft model COPF217 (Shanghai LideBiotech CO., LTD). COPF217 tumor fragments were transplanted subcutaneously into the right flank of six to eight weeks old immunodeficient female mice (NU-Foxn1nu, Charles River). […] Tumor length (L) and width (W) were measured with calipers and tumor volumes were calculated using the formula L×(W^2)/2.

The mark [4] stands for this setting: at the highest tested compound concentration.

B1: ADC2 (conjugate)
heavy: EVQLQESGPGLVKPSQTLSLTCTVSDGSVSRGGYYLTWIRQHPGKGLEWIGYIYYSGSTYFNPSLRSRVTMSVDTSKNQFSLKLSSVTAADTAVYYCARGIAVAPFDYWGQGTLVTVSSASTKGPSVFPLAPSSKSTSGGTAALGCLVKDYFPEPVTVSWNSGALTSGVHTFPAVLQSSGLYSLSSVVTVPSSSLGTQTYICNVNHKPSNTKVDKRVEPKSCDKTHTCPPCPAPPVAGPSVFLFPPKPKDTLMISRTPEVTCVVVDVSHEDPEVKFNWYVDGVEVHNAKTKPREEQYNSTYRVVSVLTVLHQDWLNGKEYKCKVSNKALPSSIEKTISKAKGQPREPQVYTLPPSREEMTKNQVSLTCLVKGFYPSDIAVEWESNGQPENNYKTTPPVLDSDGSFFLYSKLTVDKSRWQQGNVFSCSVMHEALHNHYTQKSLSLSPG
light: EIVLTQSPATLSVSPGERATLSCRTSQSVRSNLAWYQQKPGQAPRLLIYAASTRATGIPARFSGSGSGTEFTLTISSLQSEDFAVYYCQQYTNWPFTFGPGTKVDIKRTVAAPSVFIFPPSDEQLKSGTASVVCLLNNFYPREAKVQWKVDNALQSGNSQESVTEQDSKDSTYSLSSTLTLSKADYEKHKVYACEVTHQGLSSPVTKSFNRGEC
B1: the “payload release, of initial total conj. payload” value in [1] is roughly 40%. Also, the “SK-CO-1 maximal effect compared to untreated controls” value in the data set on SK-CO-1 is “(−98%)”. Besides, the “MDA-MB-468 maximal effect compared to untreated controls” value in the data set with MDA-MB-468 (setting [4]) is reported as “(−97%)”. Moreover, the IC50 in the data set with MDA-MB-468 (six days, geometric mean, N ≥ 2, CEACAM5 Negative) stood at 6.7 nM; in the data set on MDA-MB-231 (six days, geometric mean, N ≥ 3, CEACAM5 Negative) it was 15 nM. In addition, the “SNU-16 maximal effect compared to untreated controls” value with SNU-16 is given as “(−96%)”. In the data set on LS174T, the “LS174T maximal effect compared to untreated controls” value is given as “(−81%)”. The “warhead release in serum” value in “ADC stability in serum” (cynomolgus serum) and in “ADC stability in serum” (human serum) was “Only minor warhead release observed” each time. In the data set on MKN-45, the “MKN-45 maximal effect compared to untreated controls” value is reported as “(−90%)”. For the same molecule, in the data set with MDA-MB-231 (setting [4]), the “MDA-MB-231 maximal effect compared to untreated controls” value is reported as “(−84%)”. Besides, the “non-specific effect on MDA-MB-231 cells alone (only controls)” value in [2] (ADC concentration of 1 nM) is “no non-specific effect”. Moreover, the “bystander effect against CEACAM5-negative MDA-MB-231 cells in the presence of CEACAM5-positive SK-CO-1” value in [2] (ADC concentration of 1 nM, six days) is recorded as “potent bystander effect”. Also, the “bystander effect compared to ADC SAR DM4” value in [2] (co-culture, 1 nM) is listed as “much more potent bystander effect”. The anti-tumor effect entry in data set [3] is reported as “significant anti-tumor effect”. In data set [3], the “impact on body weight” value is “no significant impact on body weight”.

The record behind these values is patent US20250179210A1, “ANTI-CEACAM5 ANTIBODIES AND CONJUGATES AND USES THEREOF” (Merck Patent GmbH, priority 2022, published 2025).
